From PubChem BioAssay AID1347165 (National Center for Advancing Translational Sciences (NCATS), 2019)
Several values for one entry are separate records, joined by “and”; a condition that tells them apart may be missing. Equal entries are not always repeated. In all, about 220,000 compounds went through this assay and about 5,700 (2.6%) were called active. Inconclusive means that the source gave no clear call. Such entries were picked first, then a sample of the others. The call rests on the fitted dose curve; in most records, active means well fitted inhibition curve with a large enough effect; inconclusive means small, poorly fitted or top-dose-only effect; inactive means no such curve, though single readings can be large or run the other way. Where the call is inconclusive, the potency comes from a doubtful curve fit.

molecular target: Lysine-specific demethylase 5B (Homo sapiens) (UniProt Q9UGL1); experiment: Primary screen for KDM5B Histone Demethylases FDH-coupled qHTS; conditions: FDH-coupled NADH fluorescence (FDH is formaldehyde dehydrogenase); activity change, negative = inhibition: at 57.7 µM (top of the series) unless noted; further: nearly all actives have a fitted effect of over 70% in size; on activity change, negative = inhibition: 0% is about no effect
Outline: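 Compound dilutions met 200 nM (final) KDM5BΔAP for 10 min at room temperature before substrate addition. The substrate mix held 12.5 µM H3K4me3 with cofactors 25 µM α-ketoglutarate and 50 µM Fe²⁺. NADH signal gain over 30 min defined activity.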
Potency means the concentration at half of the fitted maximal effect; tags describe the fitted curve by direction and shape.

Chain of UniProt Q9UGL1 (Q9UGL1 whole entry, looked up): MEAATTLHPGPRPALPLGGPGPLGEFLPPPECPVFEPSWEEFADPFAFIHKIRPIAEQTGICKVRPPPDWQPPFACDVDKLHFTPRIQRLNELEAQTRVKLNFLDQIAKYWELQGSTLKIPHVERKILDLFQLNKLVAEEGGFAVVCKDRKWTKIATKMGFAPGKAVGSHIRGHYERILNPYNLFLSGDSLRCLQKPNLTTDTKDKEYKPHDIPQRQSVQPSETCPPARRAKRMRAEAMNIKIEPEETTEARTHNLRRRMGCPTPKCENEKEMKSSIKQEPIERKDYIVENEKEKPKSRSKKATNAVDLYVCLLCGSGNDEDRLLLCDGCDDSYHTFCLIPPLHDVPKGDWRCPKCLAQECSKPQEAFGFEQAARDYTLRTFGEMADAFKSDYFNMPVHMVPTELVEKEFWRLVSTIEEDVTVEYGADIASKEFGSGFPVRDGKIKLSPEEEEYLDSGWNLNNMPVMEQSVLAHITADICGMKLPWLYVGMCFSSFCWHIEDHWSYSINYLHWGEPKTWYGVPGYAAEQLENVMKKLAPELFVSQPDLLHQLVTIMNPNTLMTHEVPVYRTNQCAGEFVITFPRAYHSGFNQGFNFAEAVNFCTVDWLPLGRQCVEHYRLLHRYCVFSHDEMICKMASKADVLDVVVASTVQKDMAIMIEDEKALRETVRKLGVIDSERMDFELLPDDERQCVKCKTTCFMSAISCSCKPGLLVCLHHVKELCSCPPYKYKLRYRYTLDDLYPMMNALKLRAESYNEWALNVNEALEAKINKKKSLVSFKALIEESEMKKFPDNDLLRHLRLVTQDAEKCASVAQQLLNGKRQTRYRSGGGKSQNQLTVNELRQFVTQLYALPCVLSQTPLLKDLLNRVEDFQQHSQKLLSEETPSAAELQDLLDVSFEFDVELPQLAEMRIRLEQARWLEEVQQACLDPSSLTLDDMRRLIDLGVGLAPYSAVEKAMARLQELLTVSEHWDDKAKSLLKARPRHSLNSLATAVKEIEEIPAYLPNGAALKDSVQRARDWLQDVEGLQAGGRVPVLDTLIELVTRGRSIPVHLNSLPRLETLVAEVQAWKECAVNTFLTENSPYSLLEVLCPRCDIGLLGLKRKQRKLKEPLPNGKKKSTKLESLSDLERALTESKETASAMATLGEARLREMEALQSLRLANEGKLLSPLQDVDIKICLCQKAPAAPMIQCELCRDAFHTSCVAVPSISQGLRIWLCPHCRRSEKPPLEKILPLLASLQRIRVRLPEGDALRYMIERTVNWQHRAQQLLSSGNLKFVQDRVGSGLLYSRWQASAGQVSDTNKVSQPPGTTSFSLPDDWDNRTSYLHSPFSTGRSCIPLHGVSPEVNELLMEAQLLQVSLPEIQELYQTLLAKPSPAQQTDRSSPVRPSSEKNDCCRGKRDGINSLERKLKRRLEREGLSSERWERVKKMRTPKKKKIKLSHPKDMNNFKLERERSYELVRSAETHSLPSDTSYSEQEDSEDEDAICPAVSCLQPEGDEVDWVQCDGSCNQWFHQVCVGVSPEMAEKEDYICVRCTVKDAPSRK

For `Cc1cc(C)cc(NC(=O)c2ncn(-c3ccccc3)n2)c1`, which Potency is on record?
Its Potency is inconclusive: 39.8 µM [inhibitor, single point].

Which Potency does the source give for `CCOC(=O)c1c(-c2ccccc2)oc2ccc(OCC(=O)NNC(=O)CCCC(=O)O)cc12` here?
Its Potency is inconclusive: 28.2 µM [inhibitor, partial curve, poor fit].

Which Potency does the source give for `CCc1ccc(NC(=O)N(Cc2cn(CC)c3ccccc23)C2CCCCC2)cc1` here?
The Potency was inconclusive: 12.6 µM [inhibitor, partial curve, poor fit].

Which Potency does the source give for `Cc1cc(C)cc(NC(=O)c2cc(-c3ccc[nH]3)n[nH]2)c1` here?
Its Potency is “inactive”.

Which Potency does the source give for `O=C(CCc1ccccc1)N1CCN(c2cc(-c3ccccc3)[nH]n2)CC1` here?
The Potency was inconclusive: 20 µM [inhibitor, partial curve].

Which Potency does the source give for `Cc1ccc(-c2nnc3ccc(NCCc4ccccc4)nn23)nc1` here?
The Potency was inconclusive: 28.2 µM [inhibitor, partial curve, poor fit].

With `COc1cc(OC)cc(-c2cc3nc(C)c(CCC(=O)Nc4ccc(F)c(Cl)c4)c(C)n3n2)c1` as the compound, how does the Potency read?
The Potency was inconclusive: 3.98 µM [inhibitor, full curve, poor fit].

Which Potency does the source give for `COc1ccccc1NC(=O)C1CC(=O)N(c2n[nH]c3cccc(F)c23)C1` (stereo unspecified) here?
The Potency was inconclusive: 28.2 µM [inhibitor, single point].

For `CCOc1ccccc1Nc1ncnc2c1c(-c1ccccc1)cn2-c1ccc(OC)cc1`, which Potency is on record?
Its Potency is inconclusive: 17.8 µM [inhibitor, partial curve, poor fit].

For `CCOC1CCN(C(=O)c2cnc(Cc3c(Cl)cccc3Cl)[nH]c2=O)CC1`, which Potency is on record?
The Potency was inconclusive: 6.31 µM [inhibitor, partial curve, poor fit].

Which Potency does the source give for `CSc1ccc(-c2noc(-c3ncn4c3COC(c3ccc(F)cc3)C4)n2)cc1` (stereo unspecified) here?
The Potency was “inactive”.

For `COc1cc(NC(=O)CCc2c(C)nc3c4c(C)cc(C)nc4nn3c2C)cc(OC)c1`, which Potency is on record?
Its Potency is inconclusive: 25.1 µM [inhibitor, partial curve, poor fit].

For `Cc1ccc(CNC(=O)c2nc(S(=O)(=O)Cc3ccc(C)cc3)ncc2Cl)cc1`, which Potency is on record?
Its Potency is “inactive”.

`O=c1[nH]c(-c2ccc(F)cc2)nc2c1CCN(S(=O)(=O)c1ccc3c(c1)CCC3)C2` was tested. Which Potency did it give?
Its Potency is inconclusive: 5.62 µM [inhibitor, partial curve].

With `Cc1cccc(NC(=O)CN2C(=O)C(c3ccccc3)=NC23CCCC3)c1C` as the compound, how does the Potency read?
Its Potency is “inactive”.

How did the Potency turn out when `Cc1csc(SCc2cc(=O)oc3cc4c(cc23)CCC4)n1` was run?
Its Potency is “inactive”.

`CCOC(=O)C1(C)C=C(Nc2cccc(C)c2)C(=O)N1c1ccccc1` (stereo unspecified) was tested. Which Potency did it give?
Its Potency is inconclusive: 35.5 µM [inhibitor, partial curve, poor fit].

How did the Potency turn out when `CCOc1ccccc1NC(=O)C1=C(C)Nc2ncnn2C1c1ccccn1` (stereo unspecified) was run?
The Potency was inconclusive: 3.55 µM [inhibitor, partial curve, poor fit].

`COCc1c(C(=O)N[C@@H]2CN(Cc3ccccc3)C[C@H]2CN(C)C)noc1C` was tested. Which Potency did it give?
The Potency was inconclusive: 28.2 µM [inhibitor, single point].

With `O=C(OCn1nnc2ccccc2c1=O)c1ccc(S(=O)(=O)N2CCCc3ccccc32)cc1` as the compound, how does the Potency read?
The Potency was “inactive”.

How did the Potency turn out when `COC(=O)c1ccc(Nc2ncnc3c2cnn3-c2ccccc2)cc1` was run?
The Potency was inconclusive: 15.8 µM [inhibitor, partial curve, poor fit].

With `CCCCN(C)C(=O)CSc1nc2ccsc2c(=O)n1-c1ccccc1F` as the compound, how does the Potency read?
The Potency was “inactive”.

How did the Potency turn out when `CN(C)c1ccc(-c2nnnn2[C@H]2CO[C@H]3[C@@H]2OC[C@@H]3NC(=O)Nc2ccc(Oc3ccccc3)cc2)cc1` was run?
The Potency was active: 12.6 µM.

How did the Potency turn out when `COc1ccc(C2=C(C)C(=O)N(Cc3ccc(C(=O)Nc4ccc(C)c(C)c4)cc3)S2(=O)=O)cc1` was run?
Its Potency is inconclusive: 2 µM [inhibitor, full curve, poor fit].

`COc1ccc(C(=O)N2CCC(Oc3nccnc3N(C)C)C2)c(OC)c1` (stereo unspecified) was tested. Which Potency did it give?
The Potency was “inactive”.

How did the Potency turn out when `COc1ccc(C(=O)NCC(=O)NCc2ccc3cc(OC)ccc3c2)cc1` was run?
The Potency was “inactive”.

Which Potency does the source give for `CCC(=O)Nc1ccc2oc(-c3ccc(OC)c(Cl)c3)nc2c1` here?
The Potency was inconclusive: 5.01 µM [inhibitor, full curve, poor fit].

Which Potency does the source give for `O=C(CCc1ccnc(N2CCOCC2)c1)Nc1ccc2c(c1)OCO2` here?
Its Potency is inconclusive: 28.2 µM [inhibitor, single point].

How did the Potency turn out when `CCc1cccc(NC(=O)c2nn(C)c3c2COc2ccccc2-3)c1` was run?
Its Potency is inconclusive: 39.8 µM [inhibitor, single point].

How did the Potency turn out when `COc1cccc(-c2nc(SCC(=O)NC3CCCC3)c(-c3ccc(F)cc3)[nH]2)c1` was run?
Its Potency is “inactive”.

Which Potency does the source give for `O=C(COc1coc(CN2CCCCC2)cc1=O)NCc1ccccc1` here?
The Potency was “inactive”.

With `COCCN1CCC(CN(Cc2ccncc2)C(=O)c2cnco2)CC1` as the compound, how does the Potency read?
Its Potency is “inactive”.

For `Cc1c(CN(C)C(=O)Cn2nc(C(F)(F)F)c(Cl)c2C)cnn1C`, which Potency is on record?
The Potency was “inactive”.

For `COC(=O)CCNC(=O)c1cc(C2CC2)nc2ccccc12`, which Potency is on record?
Its Potency is inconclusive: 28.2 µM [inhibitor, single point].

For `O=C(c1cccc2[nH]ccc12)N1CCC2(CC1)N=C(c1cccc(Br)c1)NO2`, which Potency is on record?
The Potency was active: 28.2 µM.

With `O=C(Nc1cccnc1)c1ccnc(-c2nnc3ccc(Nc4ccccc4)nn23)c1` as the compound, how does the Potency read?
Its Potency is inconclusive: 39.8 µM [inhibitor, single point].

With `O=C(c1ccccc1-c1ncc[nH]1)N1CC[C@@H](c2ccc3c(c2)OCO3)[C@H](O)C1` as the compound, how does the Potency read?
The Potency was “inactive”.

With `CCOC(=O)c1cc(-c2ccc(OC)cc2)n(CCC(=O)Nc2ccc(OC)cc2OC)c1C` as the compound, how does the Potency read?
The Potency was inconclusive: 14.1 µM [inhibitor, partial curve, poor fit].

How did the Potency turn out when `O=C(CCc1ncc(-c2ccc(F)cc2)o1)NCc1ccc2c(c1)OCO2` was run?
Its Potency is “inactive”.

With `CSc1nc(NCCCN(C)C)c2c3c(sc2n1)CN(C)CC3` as the compound, how does the Potency read?
The Potency was inconclusive: 25.1 µM [inhibitor, partial curve, poor fit].

For `COc1ccc(C(=O)N[C@@H]2CN(c3ncccn3)C[C@H]2CN(C)C)cn1`, which Potency is on record?
The Potency was inconclusive: 31.6 µM [inhibitor, partial curve, poor fit].

With `Cc1cccc(-n2ncc3c(N4CCN(CCO)CC4)ncnc32)c1` as the compound, how does the Potency read?
The Potency was inconclusive: 25.1 µM [inhibitor, partial curve, poor fit].

`O=C(Nc1nnc2n1CCS2)c1ccccc1` was tested. Which Potency did it give?
The Potency was inconclusive: 12.6 µM [inhibitor, partial curve, poor fit].

For `COCc1nc(CCNC(=O)CCCc2cn(Cc3ccccc3Cl)c3ccccc23)no1`, which Potency is on record?
Its Potency is “inactive”.

Which Potency does the source give for `O=C(c1ccc2c(c1)OCO2)N1CCc2nn(Cc3ccccc3)c(=O)n2CC1` here?
Its Potency is “inactive”.

`COc1ccc2c(c1)OCC(CNC(=O)c1ccc(-c3nnn(C)n3)cc1)C2` (stereo unspecified) was tested. Which Potency did it give?
The Potency was inconclusive: 39.8 µM [inhibitor, partial curve, poor fit].

How did the Potency turn out when `c1ccc(CC2=NOC3(CCN(Cc4ccccc4)C3)C2)cc1` (stereo unspecified) was run?
The Potency was active: 31.6 µM.

`CCc1ccc(CN(Cc2ccco2)C(=O)COc2ccc(Cl)cc2C)cc1` was tested. Which Potency did it give?
The Potency was inconclusive: 2.51 µM [inhibitor, partial curve, poor fit].

How did the Potency turn out when `Cc1cc(C)cc(Oc2coc3cc(O)ccc3c2=O)c1` was run?
Its Potency is inconclusive: 22.4 µM [inhibitor, partial curve, poor fit].

`COc1ccc(-c2ccc3nnc(CNC(=O)c4cccc(NC(C)=O)c4)n3n2)cc1` was tested. Which Potency did it give?
Its Potency is active: 28.2 µM.

Which Potency does the source give for `CCc1noc(CN2CCC(c3nc4ccccc4s3)CC2)n1` here?
The Potency was “inactive”.

`CC1(COc2cccnc2)COc2ccc(C(=O)NCc3cnccn3)cc2N1` (stereo unspecified) was tested. Which Potency did it give?
Its Potency is “inactive”.

`Cc1ccc2nc(-c3ccco3)cc(C(=O)O)c2c1` was tested. Which Potency did it give?
The Potency was inconclusive: 28.2 µM [inhibitor, partial curve, poor fit] and inconclusive: 39.8 µM [inhibitor, partial curve, poor fit].

Which Potency does the source give for `CCN(CC)S(=O)(=O)c1ccc(-c2nc(C#N)c(NCCN(C)C)o2)cc1` here?
The Potency was inconclusive: 15.8 µM [inhibitor, partial curve, poor fit].

With `COc1ccc(/C=C/C(=O)c2cccs2)cc1O` as the compound, how does the Potency read?
Its Potency is inconclusive: 10 µM [inhibitor, partial curve, poor fit].

With `COc1ccc(-c2cc(C(=O)N3CCC(C)CC3)[nH]n2)cc1` as the compound, how does the Potency read?
The Potency was inconclusive: 39.8 µM [inhibitor, single point].

Which Potency does the source give for `CCOc1ccc(CNC(=O)C2CCN(Cc3cc4ccccc4n3Cc3ccccc3C)CC2)cc1` here?
The Potency was inconclusive: 4.47 µM [inhibitor, full curve, poor fit].

`O=C(c1nnc(CN2CCN(c3ccccn3)CC2)n1-c1cccnc1)N1CCC[C@@H]1c1cccc(F)c1` was tested. Which Potency did it give?
The Potency was inconclusive: 31.6 µM [inhibitor, partial curve, poor fit].

With `CC1CCCC/C1=N\NC(=S)Nc1ccc(C(C)C)cc1` (stereo unspecified) as the compound, how does the Potency read?
The Potency was inconclusive: 12.6 µM [inhibitor, partial curve, poor fit].

Which Potency does the source give for `Cc1cc(=O)n(CC(=O)NCc2ccccc2Br)c(N2CCc3ccccc3C2)n1` here?
Its Potency is inconclusive: 25.1 µM [inhibitor, single point].

With `CC(C)CC(C(=O)NCCc1ccccc1)N1Cc2ccccc2C1=O` (stereo unspecified) as the compound, how does the activity change, negative = inhibition read?
The activity change, negative = inhibition was inconclusive: -31.2% [inhibitor].

How did the Potency turn out when `C=CCNC(=O)COCC(=O)O` was run?
The Potency was “inactive”.

With `CNCCN1C(=O)CC[C@H]2CN(C(=O)Cc3c(C)nc(N)nc3C)CC[C@H]21` as the compound, how does the Potency read?
Its Potency is inconclusive: 3.55 µM [inhibitor, partial curve].

`COc1ccc(OCC2(C)COc3ccc(C(=O)NCC(C)C)cc3N2)cc1` (stereo unspecified) was tested. Which Potency did it give?
The Potency was active: 25.1 µM.

With `c1ccc(Nc2cc3c(cn2)CN(Cc2ccc4[nH]ccc4c2)CCN3)cc1` as the compound, how does the Potency read?
Its Potency is inconclusive: 28.2 µM [inhibitor, partial curve, poor fit].

How did the Potency turn out when `CN(C)c1ccc(/C=N/NC(=O)c2ccn(C)n2)cc1` was run?
Its Potency is “inactive”.
